From PubChem BioAssay AID1745853 (National Center for Advancing Translational Sciences (NCATS), 2022) come the findings set out here.

SMILES strings stand for the structures. Some of the results follow. Further columns of the screen follow, without active or inactive calls.

Holding throughout (assay): Primary Screen for Target Class Profiling of Small Molecule Inhibitors of Methyltransferases
Experiment [1] deals with Glycine N-methyltransferase (Homo sapiens) (UniProt Q14749). Conditions: purified enzyme, MTase-Glo SAH luminescence; measured here: GNMT inhibition; at 40 µM; stronger effect = lower value. The essentials:
(§1)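 Each enzyme was assayed with SAM and its substrate. SAH formation detected by MTase-Glo luminescence; single-point 40 uM screen[…].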

Experiment [2] concerns the target Guanidinoacetate N-methyltransferase (Homo sapiens) (UniProt Q14353). Conditions: purified enzyme, MTase-Glo SAH luminescence; measured here: GAMT inhibition; at 40 µM; stronger effect = lower value. The essentials: as §1
In experiment [3] the target is Histamine N-methyltransferase (Homo sapiens) (UniProt P50135). Conditions: purified enzyme, MTase-Glo SAH luminescence; measured here: HNMT inhibition; at 40 µM; stronger effect = lower value. An outline of the steps:
as §1

Experiment [4] has as its target Nicotinamide N-methyltransferase (Homo sapiens) (UniProt P40261). The following applies: purified enzyme, MTase-Glo SAH luminescence; measured here: NNMT inhibition; at 40 µM; stronger effect = lower value. The essentials: as §1
The target in experiment [5] is Phenylethanolamine N-methyltransferase (Homo sapiens) (UniProt P11086). Conditions: purified enzyme, MTase-Glo SAH luminescence; measured here: PNMT inhibition; at 40 µM; stronger effect = lower value. The essentials:
as §1
% is set by controls: 0 for no effect and ±100 for the full control effect.

As to `CC[C@@]1(C(=O)O)C[C@H](C(=O)N(C)CCO)[C@H](c2ccc(F)cc2)N1C`, the activity change, negative = inhibition in experiment [1] is -14.9%; in experiment [2], -10.3%; in experiment [3], -3.78%; in experiment [4], -15.4%; in experiment [5] it was 4.17%.

`O=C(c1ccc[nH]c1=O)N1CC(F)(F)C[C@H]1c1nc(C2CC2)no1`: the activity change, negative = inhibition in experiment [1] is -2.7%; in experiment [2], -1.77%; in experiment [3], -0.716%; in experiment [4] it was -3.49%; in experiment [5] it was 2.88%.

As for `Cc1nn2c(c1-c1ccccc1Oc1ccccc1)N(C(=O)c1cccc(C#N)c1)CCC2`, the activity change, negative = inhibition in experiment [1] was -6.13%; in experiment [2], 0.807%; in experiment [3], 0.246%; in experiment [4], -15.9%; in experiment [5] it was -1.42%.

As for `Cn1cnc2c(F)c(Nc3ccc(Br)cc3F)c(C(=O)NOCCO)cc21`, the activity change, negative = inhibition is -4.1% in experiment [1]; -2.98% in experiment [2]; 6.64% in experiment [3]; -16.8% in experiment [4]; 5.16% in experiment [5].

On to `CCCCOC(=O)NC(=O)C1c2ccccc2Oc2ccccc21`, for which the activity change, negative = inhibition in experiment [1] was 2.95%; in experiment [2], -38.6%; in experiment [3], 4.44%; in experiment [4] it was -31.5%; in experiment [5], -6.93%.

Regarding `O=C1NC2(CCN(Cc3ccsc3)C2)COc2ccccc21` (stereo not drawn), the activity change, negative = inhibition in experiment [1] was -6.37%; in experiment [2], -1.58%; in experiment [3] it was -10.9%; in experiment [4], -5.82%; in experiment [5] it was -21.1%.

In the case of `Cc1ccc(C)c(NC(=O)Cn2c(=O)c3ccc(Cl)cc3n3nncc23)c1`, the activity change, negative = inhibition in experiment [1] is -6.04%; in experiment [2] it was 0%; in experiment [3], -2.44%; in experiment [4], -3.7%; in experiment [5], -7.6%.

On to `COc1c(C(C)C)c(O)c(O)c2c1C(OC)[C@H]1OC(=O)[C@@]23CCCC(C)(C)[C@H]13` (stereo partly drawn), for which the activity change, negative = inhibition in experiment [1] was 2.95%; in experiment [2], 0.427%; in experiment [3] it was 9.56%; in experiment [4], -12.9%; in experiment [5], 6.17%.

`CC[C@H](CC#N)OC(=O)N[C@@H](C)c1cccc(NC(=O)Nc2ccc(-c3cnco3)c(OC)c2)c1`: the activity change, negative = inhibition in experiment [1] was -2.71%; in experiment [2] it was 12.3%; in experiment [3], -27.8%; in experiment [4], -20.5%; in experiment [5] it was -0.84%.

On to `COCc1nncn1C1CCN(S(=O)(=O)c2ccc(Br)cc2)CC1`, for which the activity change, negative = inhibition in experiment [1] was -1.65%; in experiment [2], -23.8%; in experiment [3] it was -3.93%; in experiment [4], -11.6%; in experiment [5], -10.3%.

Regarding `C=C(C)[C@H]1CC[C@]2(C(=O)O)CC[C@]3(C)C(CCC4[C@@]5(C)CCC(=O)C(C)(C)C5CC[C@]43C)C12` (stereo partly drawn), the activity change, negative = inhibition in experiment [1] is -7.61%; in experiment [2], -4.45%; in experiment [3], 3.07%; in experiment [4], -22.2%; in experiment [5], -11.6%.

For the compound `O=C1[C@H]2CN(Cc3c[nH]c4ccccc34)C[C@H]2C(=O)N1CCc1ccccc1`, the activity change, negative = inhibition in experiment [1] was -6.37%; in experiment [2], -5.6%; in experiment [3], -4.05%; in experiment [4], -6.83%; in experiment [5], 3.19%.

Turning to `CC1CC(C)CN(S(=O)(=O)c2ccc3c(c2)oc(=O)n3CC(=O)N2C(C)CCCC2C)C1` (stereo not drawn), the activity change, negative = inhibition in experiment [1] was -5.76%; in experiment [2], 5.3%; in experiment [3] it was -4.24%; in experiment [4] it was 3.65%; in experiment [5] it was -6.42%.

On to `CC(C)OCCCN1C(=O)c2cnn(-c3ccccc3)c2-n2cccc2C1C(=O)NC1CCCCCC1` (stereo not drawn), for which the activity change, negative = inhibition is -6.76% in experiment [1]; 1.86% in experiment [2]; -0.209% in experiment [3]; 3.25% in experiment [4]; -2.98% in experiment [5].

For the compound `CCn1c(CN(C)C)nnc1C1CCN(Cc2ccc(-n3ccnc3)cc2)CC1`, the activity change, negative = inhibition in experiment [1] is -0.521%; in experiment [2] it was -1.73%; in experiment [3], -4.69%; in experiment [4] it was 3.84%; in experiment [5], 1.01%.

For `Nc1ccc(-c2cnc(N)c(-c3ccc(Cl)cc3)c2)cn1`, the activity change, negative = inhibition in experiment [2] is 4.49%; in experiment [4], -37.4%; in experiment [5], -5.03%.

As for `C=C1CC[C@H]2[C@@](C)(CCC(O)[C@@]2(C)CO)[C@@H]1C/C=C(/C(=O)O)C(O)CO` (stereo partly drawn), the activity change, negative = inhibition in experiment [1] was -0.038%; in experiment [2], -2.94%; in experiment [3] it was 8.29%; in experiment [4] it was -12.8%; in experiment [5], -2.92%.

With `COc1ccc(-n2[nH]c(=O)c3[nH]c4cc(Cl)ccc4c(=O)c3c2=O)c(C)c1`, the activity change, negative = inhibition in experiment [1] is -5.91%; in experiment [2] it was -16%; in experiment [3], -3.24%; in experiment [4], -26.6%; in experiment [5], -24.5%.

As for `O=C(C[C@@H]1CCNC[C@@H]1Cc1cc(CC2CCCCC2)on1)NC1CCCCC1`, the activity change, negative = inhibition was -1.78% in experiment [1]; -7.59% in experiment [2]; -3.63% in experiment [3]; -12.3% in experiment [4]; -7.37% in experiment [5].

As to `COCc1ncc(C)n1CC1CCN(C(=O)C2(c3ccc(OC)cc3)CC2)CC1`, the activity change, negative = inhibition in experiment [1] was -0.75%; in experiment [2], 1.67%; in experiment [3], 1.64%; in experiment [4], -0.729%; in experiment [5], 0.905%.

In the case of `O=C(CCn1ccc2cc(S(=O)(=O)N3CCCCC3)ccc21)NCc1cccc(F)c1`, the activity change, negative = inhibition in experiment [1] is 7.63%; in experiment [2], 6.22%; in experiment [3], 4.61%; in experiment [4], 0.633%; in experiment [5] it was 0.23%.

For the compound `COc1ccc(C(=O)N2CC(CO)C3(CCNCC3)C2)cc1` (stereo not drawn), the activity change, negative = inhibition is -5.5% in experiment [1]; -5.84% in experiment [2]; -2.66% in experiment [3]; -11% in experiment [4]; -10.5% in experiment [5].

In the case of `C[C@@H]1O[C@@H](O[C@H]2[C@@H]3C=CO[C@@H](O[C@@H]4O[C@H](CO)[C@@H](O)[C@H](O)[C@H]4O)[C@@H]3[C@@]3(CO)O[C@@H]23)[C@H](O)[C@H](OC(=O)/C=C/c2ccc(O)cc2)[C@H]1OC(=O)/C=C/c1ccc(O)cc1`, the activity change, negative = inhibition in experiment [1] is 1.78%; in experiment [2] it was 1.46%; in experiment [3] it was 7.54%; in experiment [4], -10.8%; in experiment [5], -0.597%.

Turning to `Cc1cc2c(cc3n2CC(C)(C(=O)NC2CCCCCC2)N(Cc2cccc(Cl)c2)C3=O)o1` (stereo not drawn), the activity change, negative = inhibition is 2.28% in experiment [1]; 0% in experiment [2]; 8.03% in experiment [3]; 6.01% in experiment [4]; 3.39% in experiment [5].

For the compound `CSc1ccc(CNC(=O)CCn2ccc3cc(S(=O)(=O)N4CCC(C)CC4)ccc32)cc1`, the activity change, negative = inhibition in experiment [1] was determined as 3.11%; in experiment [2], 0%; in experiment [3], 7.48%; in experiment [4] it was 2.79%; in experiment [5], 3.42%.

For `COC(=O)c1ncn2c1C(=O)N(Cc1ccccc1C)C(C)(C(=O)NC1CCCC1)C2` (stereo not drawn), the activity change, negative = inhibition in experiment [1] is -3.02%; in experiment [2], 5.21%; in experiment [3], 1.21%; in experiment [4] it was 5.05%; in experiment [5] it was 0.641%.

Take `COc1cc2c(Nc3cc(F)c(Cl)c(Cl)c3)ncnc2cc1OCC1CCCN(C)CCC1`: the activity change, negative = inhibition in experiment [1] was -63.3%; in experiment [2] it was -59.2%; in experiment [3] it was -86.7%; in experiment [4] it was -80.4%; in experiment [5] it was -74.9%.

As for `COc1ccc(N2C(=O)c3cc4oc(C)cc4n3CC2(C)C(=O)NC2CCCCCC2)cc1Cl` (stereo not drawn), the activity change, negative = inhibition is 6.72% in experiment [1]; 0% in experiment [2]; 8.69% in experiment [3]; 1.4% in experiment [4]; 2.67% in experiment [5].

For `O=C(NC1CC1)[C@@H]1C[C@H](Oc2cccnc2)CN1C(=O)c1ccccn1`, the activity change, negative = inhibition was -0.127% in experiment [1]; -0.535% in experiment [2]; 1.52% in experiment [3]; -7.93% in experiment [4]; 10.8% in experiment [5].
